Test results: the RNAGym collection of RNA variant scans (doi:10.1101/gad.245936.114)
This sample is rich in variants without activity.

B1: tRNA (parent)
chain: CUCUCGGUAGCCAAGUUGGUUUAAGGCGCAAGACUUUAAUUUAUCACUACGAAAUCUUGAGAUCGGGCGUUCGACUCGCCCCCGGGAGAUUUUUUCCUCGAGCAA

Variants of: B1
Assay: nonsense suppression (GFP-seq) (ratio to wild type); higher = more function; SUP4oc tRNA, yeast GFP reporter sort-seq
How it was run: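 Yeast carrying genome-integrated SUP4oc tRNA variants from a library with ~3% random mutations were grown in raffinose/galactose medium with 80 mg/L adenine. Each strain also carried a galactose-driven GFP ochre reporter and RFP. Cells were sorted into GFP/RFP bins, and each bin was Illumina-sequenced (phred ≥30). Nonsense suppression (GFPSEQ) is the bin median GFP/RFP, weighted by each variant's estimated cell share per bin, relative to wild-type SUP4oc; variants needed ≥100 reads and ≥30 cells.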

Nonsense suppression, ≤ 0.026:
CGCUCGGUAGCCAAGUUGGUUUAAGGCGCAAGGCUUUAAUUUAUCACUACGAAAUCUUGAGAUCGGGCGUUAGACUCGCCCCCAGGAGAUUUUUUCCUCGAGCAA [U2G A33G C72A G84A]
CGCUCGGUAGCCAAGUUGGUUUAAGGCGCAAGACUUUAAUUUAUCACUACGAAUUCUUGAGAUCGGGCGUUCGACUCGCCCCCGGGAGAUUUUUUCCUCGAGCAA [U2G A54U]
CGCUCGGUAGCCAAGUUGGUUUAAGGCGCAAGACUUUAAUUUAUCACUACGAAAUCUUGCGAUCGGGCGUUCGAGUCGCCCCCGGGAGAUUUUUUCCUCGAGCAA [U2G A60C C75G]
CGCUCGGUAGCCAAGUUGGUUUAAGGCGCAAGACUUUAAUUUAUCACUACGAAAUCUUGAGAUCGGGCGUUCGCCUCGCCCCCGGGAGAUUUUUUCCUCGAGCAA [U2G A74C]
CGAUCGGUAGCCAAGUUGGUUUAAGGCGCAAGACUUUAAUUUAUCACUACGAAAUCUUGAGAUCGGGCGUUCGACUCGCCCCCGGGAGAUUUUUUCCUCGAGCAA [U2G C3A]
CGAUCGGUAGCCAAUUUGGUUUAAGGCGCAAGACUUUAAUUUAUCACUACGAAAACUUCAGAUCGGGCGUUCGACUCGCCCCCGGGAGAUUUUUUCCUCGAGCAA [U2G C3A G15U U55A G59C]
CGAUCGGUAGCCAAGUUGGUUUAAGUCGCAACACUUUAAUUUAUCACUACGAAAUCUUGAGAACGGGCGUUCGACUCGCCCCCGGGCGAUUUUUUCCUCGAGCAA [U2G C3A G26U G32C U63A A87C]
CGUUCGGUAGCCAAGUUGGUUUAAGGCGCAAGACUUUAAUUUAUCACUACGAAAUCUUGAGAUCGGGCGUUCGUCUCGCCCCCGGGAGAUUUUUUCCUCGAGCAA [U2G C3U A74U]
CGUUCGGUAGCCAAGUUGGUUUAAGGGGCAAGACUUUAAUUUAUCACUACGAAAUCUUGAGAUCGAGCGCUCGACUCGCCCCCGGGAGAUUUUUUCCUCGAGCAA [U2G C3U C27G G66A U70C]
CGUUCGGUAGCCAAGUUGGUUUAAGGCGCAAGACUUUAAUUUAUCACUACGAAAUCUUGAGAUCGCGCGUUCGACUCGCCCCCGGGAGAUUUUUUCCUCGAGCAA [U2G C3U G66C]
CGUUCGGUAGCCAAGUUGGCUUCAGGCGCAAGACUUUAAUUUAUCACUACGAAAUCUUAAGAUCGGGCGUUAGACUCGCCCCCGGGAGAUUUUUUCCUCGAGCAA [U2G C3U U20C A23C G59A C72A]
CGCUAGGUAGCCAAGUUGGUUUAAGGCGCAAGACUUUAAUUUAUCACUACGAAAUCUUGCGAUCGGGCGUUCGACUCGCCCCCGGGAGAUUUUUUCCUCGAGCAA [U2G C5A A60C]
CGCUUGGUAGCCAAGAUGGUUUAAGGCGCAAGACUUUAAUUUAUCACUACGAAAUCUUGAGAUCGGGCGUUCGACACGCCCCCGUGAGAUUUUUUCCUCGAGCAA [U2G C5U U16A U76A G85U]
CGCUCGGUAGACAAGUUGGUUUAAGGCGCAAGACUUUAAUUUAUCACUACGAAAUCUUGAGAUCGGGCGUUCGACUCGCCCCCGGGAGAUUUUUUCCUCGAGCAA [U2G C11A]
CGCUCGGUAGACAAGUUGGUUUAAGGCGCAAGACUUUAAUUUAUCACUACGAAAUCUUGAGAUCGGGCGUUCGCCUCGCCCCCCGGAGAUUUUUUCCUCGAGCAA [U2G C11A A74C G84C]
CGCUCGGUAGGCAAGUUGGUUUAAGGCGAAAGACUUUAAUUUAUCACUACGAAAUCUUGAGAUCGGGCGUCCCACUCGCCCCCGGGAGAUUUUUUCCUCGAGCAA [U2G C11G C29A U71C G73C]
CGCUCGGUAGUCAACUUGGUUUAAGGCGCAAGACUUUAAUUUAUCACUACGAAAUCUUGAGAUCGGGCGCUCGACUCGCCCCCGGGAGAUUUUUUCCUCGAGCAA [U2G C11U G15C U70C]
CGCUCGGUAGUCAAGUUCGUUUAAGGCGCAAGACUUUAAUUUAUCACUACGAAAUCUUGAGAUCGGGCGUUCGACUCGCCCCCGGGAGAUUUUUUCCUCGAGCAA [U2G C11U G18C]
CGCUCGGUAGCAAAUUUGGUUUAAGGCGCAAGACUUUAAUUUAUCACUACGAAAUCUUGAGAUCGGGCGUUCGACUCGCCCCCGGGACAUUUUUUCCUCGAGCAA [U2G C12A G15U G88C]
CGCUCGGUAGCGAAGUUGGUUCUAGGUGCAAGACUUUAAUUUAUCACUACGAAAUCUUGAGACCGAGCGUCCGACUCGCCCCCGGGAGAUUUUUUCCUCGAGCAA [U2G C12G U22C A23U C27U U63C G66A U71C]
CGCUCGGUAGCUAAGUUGGUUUAAGGCGCAAGACUUUAAUUUAUCACUACGAAAUCUUGAGAUCGGGCGUUCGACUCGCCCAGGGGAGAUUUUUUCCUCGAGCAA [U2G C12U C82A C83G]
CGCUCGGUAGCUAACUUGGUUUAAGGCGCAAGACUUUAAUUUAUCACUACGAAAUCUUGAGAUCGGGCGUUCGACUCGCCCCCGGGAGAUUUUUUCCUCGAGCAA [U2G C12U G15C]
CGCUCGGUAGCCAAGUUGGUUUAAGGAGCAAGACUUUAAUUUAUCACUACGAAAUCUUGAGAUCGGGCGUUCGACUCGCCCCCGGGUGAUUUUUUCCUCGAGCAA [U2G C27A A87U]
CGCUCGGUAGCCAAGUUGGUUUAAGGAGCAAGACUUUAAUUUAUCACUACGAAAUCUUGAGAUCGGGCGUUCGACCCGCCCCCGGGAGAUUUUUUCCUCGAGCAA [U2G C27A U76C]
CGCUCGGUAGCCAAGUUGGUUUAAGGGGCAGGACUUUAAUUUAUCACUACGAAAUCUUGAGAUGGGGCGUUGGACUCGCCCCCGGAAGAUUUUUUCCUCGAGCAA [U2G C27G A31G C64G C72G G86A]
CGCUCGGUAGCCAAGUUGGUUUAAGGUGCGAGACUUUAAUUUAUCACUACGAAAUCUUGAGAUCGGGCGUUCGACUCGUCCCAGGGAGAUUUUUUCCUCGAGCAA [U2G C27U A30G C79U C83A]

Nonsense suppression, 0.655:
CGCUCGGUAGCCAAGUUGGUUUAAGGCGCAAGACUUUAAUUUAUCACUACGAAAUCUUGAGAUCGGGCGUUCGACUCGCCCCCGGGUGAUUUUUUCCUCGAGCAA [U2G A87U]
